# PubChem BioAssay AID485344 (National Center for Advancing Translational Sciences (NCATS), 2010)
# The campaign covered roughly 340,000 compounds. About 6,900 (2%) were called active. No stated cut-off is given here; in the data, active means inhibition above about 30%; inactive means below that, where a call was filed. The list shows a part of the results, in another mix than the full data. The source gives no active or inactive call for entries shown without one.
# Target: D(2) dopamine receptor (Homo sapiens) (UniProt P14416)
# Sequence of UniProt P14416 (P14416 whole entry, looked up): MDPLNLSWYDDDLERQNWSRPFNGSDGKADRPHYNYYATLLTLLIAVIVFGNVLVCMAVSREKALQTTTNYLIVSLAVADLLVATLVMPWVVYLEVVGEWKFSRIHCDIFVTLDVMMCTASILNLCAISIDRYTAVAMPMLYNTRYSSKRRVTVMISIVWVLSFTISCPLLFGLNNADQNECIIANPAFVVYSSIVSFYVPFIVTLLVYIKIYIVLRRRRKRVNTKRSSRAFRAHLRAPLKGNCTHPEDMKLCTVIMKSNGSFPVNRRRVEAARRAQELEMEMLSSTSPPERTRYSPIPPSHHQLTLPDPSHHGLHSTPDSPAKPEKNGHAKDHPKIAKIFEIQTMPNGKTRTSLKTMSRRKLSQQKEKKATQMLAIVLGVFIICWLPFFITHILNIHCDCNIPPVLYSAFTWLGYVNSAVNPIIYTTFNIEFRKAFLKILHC
# Test: HTS Assay for Allosteric Antagonists of the Human D2 Dopamine Receptor: Primary Screen for Antagonists; further: 0% is about no effect
# Settings: HEK293 TREx D2 cells, calcium flux, dopamine EC80; at 10 µM; stronger effect = higher value
# Summary of the method: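 Cells plated overnight at 30 C with tetracycline; no-wash calcium dye, 30–90 min RT; 10 s baseline; compound pinned; 180 s read; EC80 dopamine added; another 180 s read.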
row,Compound,inhibition
1,CCOc1ccc(N(CC)S(=O)(=O)N2CCCC(C(=O)NCc3ccc(Cl)cc3)C2)cc1 (centres undefined),3.6%
2,CC(C)NC(=O)N1CCC(N2CCN(Cc3ccc(F)cc3)C(=O)C2=O)CC1,-1.71%
3,COC(=O)C(C)NC(=O)N1CCN(c2nnc(C)c3c(C)n(-c4ccc(Cl)cc4)nc23)CC1 (centres undefined),-3.18%
4,Cc1ccc(S(=O)(=O)c2nnn3c2nc(NCc2cccs2)c2sccc23)cc1C,-14.6%
5,Cc1cc(C)cc(NC(=O)C2CCN(c3cc(C)nc4c(-c5ccc(Cl)cc5)c(C)nn34)CC2)c1,-0.613%
6,Cc1ccc(NC(=O)C2CC(=O)NC(N3CCCCC3)=N2)cc1Cl (centres undefined),active: 70.9%
7,Cc1cccc(CS(=O)(=O)c2ncc(Cl)c(C(=O)Nc3nc4ccc(F)cc4s3)n2)c1,-14.1%
8,Cn1nnnc1SCCNCc1ccccc1OCc1ccc(Cl)cc1Cl,8.59%
9,Cc1ccc(N2CCN(S(=O)(=O)c3ccc4oc(=O)c5ncn(C)c5c4c3)CC2)c(C)c1,-7.46%
10,CCOCCCNC(=O)Nc1cc(C(=O)NCc2ccc(C(C)C)cc2)ccc1N1CCCC1,-2.76%
11,CC(C)OCCCN(C)C1CCN(S(=O)(=O)c2csc(C(N)=O)c2)CC1,-10.2%
12,COc1ccc(-n2c(C)nc3cc(C(=O)NC4CCCC4)ccc32)cc1,9.58%
13,COc1cc2c(cc1OC)C(COc1ccc(F)cc1)N(C(=O)c1ccccc1F)CC2 (centres undefined),15.5%
14,Cc1cccc(-c2nnc(SCC(=O)N3CCCc4ccccc43)o2)c1,10.8%
15,CC(=O)c1ccc(C(=O)N(Cc2cccnc2)c2nc3c(Cl)cccc3s2)cc1,12.8%
16,Cc1cccc(C(=O)Nc2cc3c(cc2N2CCOCC2)n(C)c(=O)n3C)c1,-3.76%
17,CCc1ccc(NC(=O)COC(=O)c2nc3nc(C)cc(C)n3n2)cc1,active: 40.6%
18,Nc1c(-c2nc(-c3ccccc3)cs2)c2ccccn2c1C(=O)c1ccc2c(c1)OCO2,-7.43%
19,CCN1C(C(=O)c2ccccc2)=C(OC(=O)COc2ccccc2)c2ccccc2S1(=O)=O,-2.11%
20,O=C(NCCCN1CCN(c2ccccc2)CC1)c1nnc(Cc2ccc(F)cc2)o1,-1.27%
21,O=C(O)CC(NS(=O)(=O)c1ccc(Br)s1)c1ccccc1 (centres undefined),2.86%
22,CCOc1ccc(NC(=O)Cn2cc(C(=O)c3ccc(C)cc3)c(=O)c3cc4c(cc32)OCCO4)cc1,4.43%
23,Cc1cc(C)c(S(=O)(=O)N2CCN(Cc3nc4ccc(C)cc4o3)CC2)c(C)c1,-1.12%
24,CC1=C(C(=O)Nc2cc(C)ccc2C)C2(CCCCCC2)OC1=O,13.4%
25,Cc1onc(-c2ccc(Br)cc2)c1C(=O)Nc1ccc(Br)cc1F,-24.7%

row,Compound,inhibition
1,COc1ccc(-n2c(SCC(=O)Nc3nnc(C)s3)nc3c([nH]c4ccccc43)c2=O)cc1,5.2%
2,CCOC(=O)c1scc(-c2ccc(C)cc2)c1S(=O)(=O)Nc1cccc(CC)c1,-13.4%
3,CC(C)N(C(=O)c1cc2c(Cl)nc3ccccc3c2s1)C1CCCCC1,6.73%
4,COc1cccc2sc(N3CCN(C(=O)CS(=O)(=O)c4ccc(Cl)cc4)CC3)nc12,-7%
5,COc1cccc(CNc2ncc(-c3ccc(Br)cc3)n2C)c1,23.9%
6,COc1ccc(-c2nc3ccc(NS(C)(=O)=O)cc3o2)cc1,-4.68%
7,Clc1ccccc1Cn1cccc1C1=NC(Cc2ccccc2)CO1 (centres undefined),-2.48%
8,CCN(C(=O)c1cnc(N2CCN(c3ncccn3)CC2)c2ccccc12)c1cccc(Cl)c1,active: 46.5%
9,Cn1c(SCC(N)=O)nc2c([nH]c3ccccc32)c1=O,12.3%
10,O=C(O)c1ccc(Nc2nc(-c3ccccc3)c3cc(Br)ccc3n2)cc1,0.932%
11,CCC(=O)N1CCc2cc(S(=O)(=O)CCC(=O)N3CCN(c4ccccc4Cl)CC3)ccc21,12.3%
12,CN(c1ncnc2c1c(-c1ccccc1)cn2-c1ccc(F)cc1)C1CCCCC1,15.9%
13,CCOC(=O)c1cc(-c2ccccc2)n(CCC(=O)Nc2ccc(C(F)(F)F)cc2)c1C,-2.38%
14,Cc1ccc(N(Cc2cccs2)C(=O)c2ccccc2)cc1,-6.04%
15,O=C(NNc1nc2cc3c(cc2s1)OCO3)c1cccc(F)c1,active: 40%
16,Cc1cccc(NC(=S)NC2CC3CCCC(C2)N3Cc2cccs2)c1C (centres undefined),active: 68.6%
17,O=C(NCCn1cc(SCc2cccc(F)c2)c2ccccc21)c1cccc(C(F)(F)F)c1,-7.15%
18,O=C1CCCC/C1=C/Nc1cccc(C(F)(F)F)c1,active: 33.9%
19,Cc1cccc(NC(=O)CSc2nc3ccc(NC(=O)COc4ccc(Cl)cc4)cc3s2)c1,-3.85%
20,Cc1c(NC(=O)Cc2ccc(F)cc2)cccc1-c1nc2cccnc2s1,17.5%
21,Fc1ccc(-c2nc(-c3cccs3)c(-c3cccs3)[nH]2)cc1,10.5%
22,Cc1nn(-c2ccccc2)c2c1N(CC(=O)NCc1ccc(N(C)C)cc1)C(=O)CS2,12.9%
23,O=C(Nc1nnc(SCc2cc(=O)c3ccccc3[nH]2)s1)c1ccccc1,0.376%
24,COc1cccc(-c2csc(N3CCN(C(=S)Nc4cccc(C)c4)CC3)n2)c1,active: 85.8%
